Data taken from publication PMC4336329 (PLoS ONE, 2015).
The campaign covered roughly 310,000 compounds. About 2,200 (0.71%) showed an effect of 50% or more. The effect is printed as a negative number. The list shows a part of the results.

These compounds were tested against human ether-à-go-go-related gene (hERG) potassium channel (human, UniProt Q12809) (assay: primary screen, population patch clamp on CHO cells stably expressing hERG).
human ether-à-go-go-related gene (hERG) potassium channel, sequence (Q12809 whole entry, looked up): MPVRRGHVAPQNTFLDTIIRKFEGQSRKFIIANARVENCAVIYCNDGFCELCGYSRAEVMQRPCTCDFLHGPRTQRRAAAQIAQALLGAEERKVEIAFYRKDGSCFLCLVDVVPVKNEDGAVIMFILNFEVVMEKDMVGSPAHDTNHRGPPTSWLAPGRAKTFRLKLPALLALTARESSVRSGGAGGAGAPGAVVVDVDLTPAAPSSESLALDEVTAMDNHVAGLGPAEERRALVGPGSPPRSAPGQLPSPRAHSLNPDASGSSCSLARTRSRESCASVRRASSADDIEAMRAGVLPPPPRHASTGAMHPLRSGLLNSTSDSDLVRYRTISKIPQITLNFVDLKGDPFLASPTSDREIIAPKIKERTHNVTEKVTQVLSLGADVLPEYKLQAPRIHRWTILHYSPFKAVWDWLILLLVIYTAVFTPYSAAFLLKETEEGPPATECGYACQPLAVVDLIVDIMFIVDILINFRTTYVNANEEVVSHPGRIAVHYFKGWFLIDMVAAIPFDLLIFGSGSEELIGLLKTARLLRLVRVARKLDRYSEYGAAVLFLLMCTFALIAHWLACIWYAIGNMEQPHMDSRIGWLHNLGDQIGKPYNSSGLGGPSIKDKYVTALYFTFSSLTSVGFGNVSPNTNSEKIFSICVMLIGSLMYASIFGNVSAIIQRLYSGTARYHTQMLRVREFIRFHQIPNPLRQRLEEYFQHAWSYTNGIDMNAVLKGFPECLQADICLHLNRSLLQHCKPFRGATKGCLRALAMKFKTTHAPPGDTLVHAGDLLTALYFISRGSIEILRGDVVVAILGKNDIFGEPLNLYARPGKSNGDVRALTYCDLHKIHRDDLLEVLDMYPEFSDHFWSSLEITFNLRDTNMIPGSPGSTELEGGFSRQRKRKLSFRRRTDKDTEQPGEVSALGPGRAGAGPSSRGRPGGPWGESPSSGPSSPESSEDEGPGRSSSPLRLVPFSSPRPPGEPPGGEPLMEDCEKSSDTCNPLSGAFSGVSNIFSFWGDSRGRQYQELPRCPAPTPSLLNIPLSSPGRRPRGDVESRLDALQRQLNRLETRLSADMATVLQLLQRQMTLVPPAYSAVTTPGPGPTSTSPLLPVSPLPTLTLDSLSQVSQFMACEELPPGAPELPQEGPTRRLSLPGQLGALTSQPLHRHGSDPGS

SMILES | hERG current change (%, negative = inhibition) at 1uM [%]
CC(=O)Nc1ccc(S(=O)(=O)N(Cc2ccco2)CC2CCCO2)cc1 (stereo not drawn) | 14.3
COC(=O)c1[nH]c2cc(OC)c(OC)cc2c1/C=N/Nc1ccccc1 | 29.7
CCC(C)N1CCN(S(=O)(=O)c2ccc3ccccc3c2)CC1.O=C(O)C(=O)O (stereo not drawn) | 13.4
COc1ccc(Oc2nc(-c3ccncc3)nc3ccccc23)cc1 | 15.8
O=C(N/N=C/c1cn(-c2ccccc2)nc1-c1cccnc1)c1ccc(F)cc1 | -17.1
COc1ccc(-n2c(Cc3cccn3C)nnc2SCC(=O)NCCc2ccccc2)cc1 | 12.7
COc1ccc(C2CC(C(F)(F)F)n3nc(C(=O)O)cc3N2)cc1OC (stereo not drawn) | -9.65
CCOC(=O)c1cn2ccc(C)cc2n1 | -1.3
Cn1nc(-c2ccc(OCC(N)=O)cc2)c2ccccc2c1=O | 3.45
CC1CCN(C2=C(NS(=O)(=O)c3ccccc3)C(=O)c3ccccc3C2=O)CC1 | 0.812
O=C(CSc1ccc(-c2ccc(F)cc2)nn1)NC1CCCCC1 | 5.48
O=C1CSC(c2ccccn2)N1Cc1cn2ccccc2n1 (stereo not drawn) | 5.02
Cc1nnc(SCCOc2ccccc2)s1 | 13.3
CCCc1ccc(OCc2nc(-c3ccc(NC(=O)c4cccs4)cc3)no2)cc1 | 6.39
Cc1ccc(-c2onc3ccc(C=O)cc23)cc1 | 6.48
O=C(O)c1cc(NS(=O)(=O)c2ccc(N3CCCCC3)c([N+](=O)[O-])c2)cc(C(=O)O)c1 | 5.04
O=C(O)CCC(=O)Nc1nc2nccc(-c3ccccc3)n2n1 | 1.61
O=C(c1cc(C(=O)N2CCN(c3ccc(F)cc3)CC2)cc([N+](=O)[O-])c1)N1CCN(c2ccc(F)cc2)CC1 | 5.18
CCN(CC)C(=O)C1CCCN(C(=O)CCn2nnnc2CN2CCOCC2)C1 (stereo not drawn) | 17.5
CCC(C)n1ncn(-c2ccc(N3CCN(c4ccc(OCC5COC(Cn6cncn6)(c6ccc(Cl)cc6Cl)O5)cc4)CC3)cc2)c1=O (stereo not drawn) | 17.6
Cc1ccc(NC(=O)CC2NCCNC2=O)cc1Cl (stereo not drawn) | 16.1
COc1ccc(NC(=O)c2cc(S(=O)(=O)N3CCCCC3)c[nH]2)cc1Cl | 10.8

SMILES | hERG current change (%, negative = inhibition) at 1uM [%]
CC(NC(=O)c1ccccc1)c1nnc(SCC(=O)Nc2nnc(C3CC3)s2)n1C (stereo not drawn) | 0.0981
Cc1ccc(-c2csc(/C(C#N)=C/Nc3ccccc3SC(F)(F)F)n2)cc1 | 6.72
Cc1ccc(F)cc1CNC(=O)C1CCC(=O)N(CCCN2CCCC2=O)C1 (stereo not drawn) | 15.4
CCn1c(SCC(=O)Nc2ccc(C)cc2)nnc1-c1cnccn1 | 8.53
Cc1ccc(N2CC(C(=O)Nc3ccccn3)CC2=O)cc1 (stereo not drawn) | -0.954
CCOC(=O)N1CCN(C(=S)NC(=O)c2nn(C)cc2Br)CC1 | 24.1
O=C(Nc1ccc(F)cc1)c1cccc2c1C(=O)N(CC1CCCO1)C2 (stereo not drawn) | 0.85
Cc1ccc(/C=N/NC(=O)COc2ccccc2-c2ccccc2)cc1 | 8.45
CCOCCOC(=O)C1=C(C)NC2=C(C(=O)CC(c3cccs3)C2)C1c1ccsc1 (stereo not drawn) | 12.1
Cc1cc(O)c2/c(=N\N)c(-c3csc(C)n3)coc2c1 | 6.04
Cn1cccc1-c1nc2ccc(NC(=O)c3cccs3)cc2[nH]1 | -16.9
CCOC(=O)C1CCN(S(=O)(=O)c2csc(C(N)=O)c2)CC1 | 2.13
CN(Cc1ccccc1F)C(=O)c1sccc1-c1ccccc1 | 9.65
CCCN(CC1CC1)C(=S)Nc1ccccc1F | 5.68
CCn1cnc2c1c(=O)n(Cc1ccc(C(=O)OC)cc1)c(=O)n2Cc1ccccc1 | 19.6
COc1ccccc1NS(=O)(=O)c1ccc2oc(N)nc2c1 | 15.9
CN(C)C(=O)c1cc(C(=O)c2ccccc2Cl)c[nH]1 | 19.2
CN1CCN(C(=O)CCCOc2ccc(Cl)cc2Cl)CC1 | -34
Cc1ccc(NC(=O)c2nc(S(=O)(=O)Cc3ccccc3)ncc2Cl)cc1 | 21.4
CCN(C(=O)COC(=O)c1cccn1C)C1CCS(=O)(=O)C1 (stereo not drawn) | 11.5
CCCCn1c(NS(=O)(=O)c2ccc(C)cc2)c(C(=O)OCC)c2nc3ccccc3nc21 | 1.73
Cc1cc(C(=O)N(C)C)sc1-c1ccccc1 | 9.36

SMILES | hERG current change (%, negative = inhibition) at 1uM [%]
COc1ccccc1Cc1nnc(NC(=O)C2CCN(C(=O)c3ccco3)CC2)s1 | 8.89
COc1cc(C2=NOC(C(=O)NCc3ccccn3)C2)cc(OC)c1OC (stereo not drawn) | 14.9
O=c1ccnc(SCn2nnc3ccccc3c2=O)[nH]1 | 8.43
Cn1ccsc1=NC(=O)c1ccc(S(=O)(=O)C(F)F)cc1 | 14.4
CCCCNc1nc2ccccc2nc1NS(=O)(=O)c1ccc(F)cc1 | 6.65
COc1cc(Br)cc(/C=N/NC(=O)Cc2ccc(C(F)(F)F)cc2[N+](=O)[O-])c1O | 7.29
COc1ccccc1NCN1C(=O)CCC1=O | 2.48
COc1ccc2cc(/C=C/C(=O)c3ccco3)c(Cl)nc2c1 | 16.7
O=C(Cn1cc2c(n1)CCCC2)NCCCN1CCN(c2ccccc2F)CC1 | -5.66
CCc1ccc(S(=O)(=O)Nc2ccncc2)cc1 | 7.89
CCCc1cc(C(N)=O)c(NC(=O)c2ccco2)s1 | 16.2
NC(=S)NC1CC2C=CC1C2 (stereo not drawn) | 12.7
COc1ccccc1C(O)(C(=O)NN(C(=O)c1ccccc1)c1ccccc1C)c1cccs1 (stereo not drawn) | -8.26
CN1C(=O)[C@@H]2[C@@H]3C[C@@H]([C@H]4ON=C(c5ccc(Cl)cc5)[C@@H]34)[C@@H]2C1=O | -2.57
NS(=O)(=O)c1cccc(NC(=O)COC(=O)c2ccccc2C(=O)c2ccccc2)c1 | -2.46
CC(C)(C)c1ccc(CN2C(=O)c3ccccc3S2(=O)=O)cc1 | 15.7
O=C(NCC1CCCO1)c1ccccc1OCc1ccc(Cl)cc1 (stereo not drawn) | 11.5
Cc1c(NC(=O)C(C)OC(=O)c2cc3c4ccccc4n(C)c3s2)c(=O)n(-c2ccccc2)n1C (stereo not drawn) | -2.85
O=C(NC1CCC(O)CC1)c1ccc2c(c1)S(=O)(=O)N=C1CCCCCN12 (stereo not drawn) | 12.5
CCOc1ccc(-n2c(SCC(=O)OC)nc3sc4c(c3c2=O)CCN(C)C4)cc1 | 13.1
CC(C)NC(=O)c1ccccc1N(Cc1ccccc1)S(C)(=O)=O | 15.3
Cn1nc(C(F)(F)F)cc1-c1ccc(/C=C(\C#N)C(=O)c2ccccc2)s1 | 14.3

SMILES | hERG current change (%, negative = inhibition) at 1uM [%]
Cc1sc2ncn(CC(=O)NC3CCCCC3)c(=O)c2c1C | 5.06
O=C(O)CC1=C(O)C(=O)N(c2ccccc2)C1c1ccc(Cl)cc1 (stereo not drawn) | 17.6
CN(Cc1ccccc1)CC(O)COc1ccc(CNCCCOc2cccnc2)cc1 (stereo not drawn) | 11.4
Cc1ccccc1CNC1CCCCC1.Cl | 2.15
Cc1ccc(S(=O)(=O)Nc2ccc3nc(C)sc3c2)c(C)c1 | 9.4
O=C(Cn1ccc2cc(S(=O)(=O)N3CCCC3)ccc21)NCc1ccccc1 | 19.6
CN1CCN(c2nc(N)c(Br)c(Cl)n2)CC1 | 11.2
COc1ccc(CCNC(=O)C2CCN(S(=O)(=O)c3cc(OC)ccc3OC)CC2)cc1 | 5.93
COCCNC(=O)C(c1cccs1)N(C(=O)Cn1nnc2ccccc21)c1ccccc1 (stereo not drawn) | 2.32
Cc1cccc(NC(=S)NCC(c2cccnc2)N(C)C)c1 (stereo not drawn) | 10.4
CC(=O)Nc1ccccc1-c1nc2ccc(C(=O)N3CCN(c4cccc(C)c4)C(C)C3)cc2[nH]c1=O (stereo not drawn) | 12.3
COc1ccccc1OCC(=O)Nc1ccc(S(=O)(=O)Nc2onc(C)c2C)cc1 | 13.8
COc1cccc(NC(=O)C2CCN(C(=O)[C@@H]3Cc4ccccc4CN3)CC2)c1 | 0.0621
CCOC(=O)c1nnn2c1nc(N1CCCCC1)c1ccccc12 | 9.11
Cc1sc2nc(CSC(C)C(=O)Nc3ccc(C#N)cc3)[nH]c(=O)c2c1C (stereo not drawn) | 8.63
CC(C)Nc1nc(NNc2nc(Cl)nc(NC(C)(C)C)n2)nc(NC(C)C)n1 | 20.2
O=C(C(=O)N1CCN(c2cccc(Cl)c2)CC1)N1CCCCC1 | 12.1
Cc1ccn(C(=O)c2cc3ccccc3oc2=O)n1 | 5.6
COc1ccc(OC)c2c1cc(C(=O)N[C@H](C(=O)N1CCC(C(=O)O)CC1)C(C)C)n2C | 9.57
COc1ccc(S(=O)(=O)N2CCc3ccccc3C2)cc1 | 16.2
O=c1c2ccccc2c(C=NC2CCS(=O)(=O)C2)c(O)n1-c1ccccc1 (stereo not drawn) | 12.9
